Reference: the RNAGym collection of RNA variant scans (doi:10.1093/nar/gkz1192)
The source gives no read counts; variants with many changes may rest on few reads.

B1: CPEB3 Ribozyme (parent)
chain: UAACAGGGGGCCACAGCAGAAGCGUUCACGUCGCAGCCCCUGUCAGAUUCUGGUGAAUCUGCGAAUUCUGCUGUAUAUCUC

Variants of: B1
Assay: self-cleavage, relative activity (ratio to wild type); higher = more cleavage; in vitro, sequencing
Outline: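 Libraries of CPEB3 self-cleaving ribozyme mutants came from rounds of error-prone PCR and carried barcodes, which DNA sequencing matched to variants. In vitro transcription used T7 RNA polymerase at 37°C for 5 hours, with a further 15 min in DNase I before EDTA stopped the reaction; the ribozymes cleaved during both steps. The RNA was reverse transcribed with template switching and sequenced on Illumina. Relative activity is the cleaved/total read fraction of a variant divided by that of the unmutated ribozyme, averaged over three batches with at least 5 reads.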
For A56U A57G A64G U80A, the self-cleavage was 0.45. For A57G U60A A65G U69A U80C, the self-cleavage was 0.43. A64G U67A U72G gave a self-cleavage of 0.24. Variant U60A A65G U78C has a self-cleavage of 0.24. Variant A65G U69A U72A has a self-cleavage of 0.24. In the case of U60C A64U U72C, the self-cleavage is reported as 0.3. A56U U58C U80C showed a self-cleavage of 0.21. With U58C A64U U69A U78C the self-cleavage was 0.13. For A64G A65G U66C U80C, the self-cleavage was 0.15. U60C U67C U69C showed a self-cleavage of 0.34. C62U U69C A77C gave a self-cleavage of 0.16. For U60C U72C U80C, the self-cleavage was 0.83. In the case of A57G A77U U80C, the self-cleavage is reported as 0.98. G61A A65G U72C gave a self-cleavage of 0.37. With U58A U72C U78C the self-cleavage was 0.45. U54C C68A A77G gave a self-cleavage of 0.42. In the case of A57G U60A A65G, the self-cleavage is reported as 0.25. In the case of U58C U66C U72C, the self-cleavage is reported as 0.22. With A64U A75G U80G the self-cleavage was 0.32. U54C A57G A64U gave a self-cleavage of 0.29. With G55U U67C U72A the self-cleavage was 0.2. For U54C U66C U69C U74C, the self-cleavage was 0.21. A56C U74A A75G showed a self-cleavage of 0.9. G63A A64G C79A showed a self-cleavage of 0.6. With U60C U66A A75G the self-cleavage was 0.17. Work on U54C U72C G73A yielded a self-cleavage of 1.26. With U58C A65G U78A the self-cleavage was 0.16. A56U U67A U72A U80C showed a self-cleavage of 0.29. Work on A57G A64U U67C yielded a self-cleavage of 0.41. A64G A75U U80C gave a self-cleavage of 1.05. A57G A64G U72C A77U gave a self-cleavage of 0.86. In the case of G55A A57G U66C A77G, the self-cleavage is reported as 0.13. Work on G63U A65G U78C yielded a self-cleavage of 0.37. For A56G U72C U74C, the self-cleavage was 1.24. Variant C62U A64G A77G U80A has a self-cleavage of 0.15. In the case of U60C U78C U80C, the self-cleavage is reported as 0.44. Work on U54C U60A C62G yielded a self-cleavage of 0.26. For A56G A57G U69C U74C U78A, the self-cleavage was 0.13. In the case of A56G G70C U72C, the self-cleavage is reported as 0.29. A64U A65U U72C showed a self-cleavage of 0.59. Variant U54C C59A U66C has a self-cleavage of 0.13. With U54G C62U U76C the self-cleavage was 0.19. U58C C62U A65U U78C showed a self-cleavage of 0.13. Variant U54C U72C U74C has a self-cleavage of 1.25. For U60A U67A U78C, the self-cleavage was 0.31. In the case of A65G U66C A75U U78C, the self-cleavage is reported as 0.17. A64G U66C C81A gave a self-cleavage of 0.17. A65G U72A U78C showed a self-cleavage of 0.18. Work on U58C U72G U80C yielded a self-cleavage of 1.09. In the case of A64C A65G U72A, the self-cleavage is reported as 0.23. A57U G61C U67C A77G gave a self-cleavage of 0.12. G55A U60C U80C gave a self-cleavage of 0.23. U58C U60A U74C gave a self-cleavage of 0.29. U60C U67C C79A gave a self-cleavage of 0.33. For A56G U60A A64G, the self-cleavage was 0.25. For U54C U60C U66C A77G, the self-cleavage was 0.4. For U58C A64G A65G U69C, the self-cleavage was 0.2. With A57G U69C U72A the self-cleavage was 0.44. In the case of A56C U72C C81U, the self-cleavage is reported as 0.29. Variant U58G A64G U74C has a self-cleavage of 0.3. A57G U72C C79A showed a self-cleavage of 1.13. Work on A56G A65G U74C yielded a self-cleavage of 0.44. Variant A56G A57G U72A has a self-cleavage of 0.24. Variant U58A U67C A75G has a self-cleavage of 0.22. Work on U58C U66C A77G yielded a self-cleavage of 0.14. Work on A57G G61U A65U yielded a self-cleavage of 0.14. For G63A A65G A77U U80C, the self-cleavage was 0.4. For U58C U69C U74A, the self-cleavage was 0.16. In the case of U60C U74A A77C, the self-cleavage is reported as 0.79. U54G U69C U78C gave a self-cleavage of 0.38. In the case of A56G U67A U80C, the self-cleavage is reported as 0.62. For U54C U66C U69C, the self-cleavage was 0.19. Work on C62G U72C U78G yielded a self-cleavage of 0.19. A56G U58A U69C gave a self-cleavage of 0.47. U60C A65G U66C gave a self-cleavage of 0.14. In the case of U60A U66C A75G U80A, the self-cleavage is reported as 0.15. A65U C68A U69C gave a self-cleavage of 0.25. With U54C A56G C62A the self-cleavage was 0.2. Variant A56G U74A U76C has a self-cleavage of 1.22. A56U A64G U78C showed a self-cleavage of 0.39. A64G U69C U78C showed a self-cleavage of 0.49. Work on U60C C68A A75U yielded a self-cleavage of 0.19. Work on A56G G63A A64C U76A yielded a self-cleavage of 0.17. A64U U72G U76C A77U gave a self-cleavage of 0.29. In the case of A64G U69A C81A, the self-cleavage is reported as 0.54. In the case of G55U A65G U69C U80C, the self-cleavage is reported as 0.16. A57G A75G U80C showed a self-cleavage of 0.45. G55A A56U A64G gave a self-cleavage of 0.65. Variant U60A U72C U76A has a self-cleavage of 0.5. G61U U66C U69C showed a self-cleavage of 0.25. Variant A57G U67C U76A has a self-cleavage of 0.21. For U60C U67A U72A, the self-cleavage was 0.3. Work on U54C A75U C79A yielded a self-cleavage of 1.24. U54G G61A U67C gave a self-cleavage of 0.39. For A56G A57G U74A, the self-cleavage was 0.26. C59A A77U U80C showed a self-cleavage of 0.32. With A56G U58C U69G the self-cleavage was 0.14. With U58A U67A U80A the self-cleavage was 0.5. For U60G U69C U80C, the self-cleavage was 0.29. In the case of A65U C71U U78C C79A, the self-cleavage is reported as 0.22. In the case of A56G A57G C62U A64U, the self-cleavage is reported as 0.16. Variant G55U U66A C71U has a self-cleavage of 0.29. A57G A65G C71G U80C gave a self-cleavage of 0.37. Variant U60C A64U U67A has a self-cleavage of 0.2. In the case of A64G U72C U80A, the self-cleavage is reported as 1.05. Work on A56G A64U U78C yielded a self-cleavage of 0.49. Variant U58C U72C U76A has a self-cleavage of 0.79. In the case of C62U A64G U78A, the self-cleavage is reported as 0.11. In the case of A65G U69C U72C, the self-cleavage is reported as 0.3. A56G U60C C79A showed a self-cleavage of 0.46. With A64G A65G U66C U76C the self-cleavage was 0.24. U54C U69A U80C showed a self-cleavage of 0.53. A56G A64U U69C gave a self-cleavage of 0.36. For A56G A64U U69A, the self-cleavage was 0.27. U58C U60A U72C showed a self-cleavage of 0.39. For G63C U72A U80C, the self-cleavage was 1.24. Variant A56G U69A G73U has a self-cleavage of 0.93. For U58G U60A U72G G73A, the self-cleavage was 0.21. For C59U U60C C62U U80C, the self-cleavage was 0.11. Work on A56G A64C A65G U69A yielded a self-cleavage of 0.14. A56G A75G A77U gave a self-cleavage of 0.57. Work on U60A U72A U80C yielded a self-cleavage of 0.96. Work on U60A A64G A75G yielded a self-cleavage of 0.26. For A57G U72A U78C, the self-cleavage was 0.39. Variant U58G U67C U72A has a self-cleavage of 0.15. In the case of A56U U60A U67C U76C U78C, the self-cleavage is reported as 0.14. Variant A57G A64G A77U has a self-cleavage of 0.98. A57G U66A U80A gave a self-cleavage of 0.29. With U58C U60G U80A the self-cleavage was 0.17. A64G U67C U78A U80C showed a self-cleavage of 0.21. U54C U66A U72A showed a self-cleavage of 0.45. U58A U72C G73C showed a self-cleavage of 0.4. In the case of A57G U67A U72A, the self-cleavage is reported as 0.38. For A65G U69C U72A U80A, the self-cleavage was 0.11. For A56G U60A A64U U80C, the self-cleavage was 0.14. Variant U58C U66A U67A has a self-cleavage of 0.2. For A56G U76C U80C, the self-cleavage was 0.93. In the case of A57G C62A U80C, the self-cleavage is reported as 0.36. U60A U66C U74C A75G U76A showed a self-cleavage of 0.22. In the case of A56U A57G C71U, the self-cleavage is reported as 0.37. U58A C62U U72C showed a self-cleavage of 0.24. Variant U58A U69G G73A has a self-cleavage of 0.39. Variant U60C A65C U78A has a self-cleavage of 0.38. With U54G U60C A64G the self-cleavage was 0.24. Variant U54C U72A G73U has a self-cleavage of 1.2. Work on U60A U67A A77G yielded a self-cleavage of 0.32. Variant U54C U60G U67A has a self-cleavage of 0.17. For U54C A64G C79U, the self-cleavage was 1.11. U60C A64G U66G showed a self-cleavage of 0.14. In the case of G55A U69C G70A U76G, the self-cleavage is reported as 0.19. A56G U58C U76A gave a self-cleavage of 0.33. For G55A A57G A64G U76C A77G, the self-cleavage was 0.33. A65G A77G C79G gave a self-cleavage of 0.68. Work on A57C U66C U72A U76C yielded a self-cleavage of 0.1. With C59A U60A A75U the self-cleavage was 0.33. A57G U58A C59A A77G showed a self-cleavage of 0.17. Variant G55U U60C A77U has a self-cleavage of 0.38. With A56U A65G U72C the self-cleavage was 0.21. Variant U66A A75U A77G has a self-cleavage of 0.3. Work on A57G U58C U78C yielded a self-cleavage of 0.23. Work on A65G U69C U80A yielded a self-cleavage of 0.38. For A57G C71G U80A, the self-cleavage was 0.16. Variant G55A A56G U66C C68U U78C has a self-cleavage of 0.12. A56U U72A U78C U80C gave a self-cleavage of 0.5. U60A U72C G73A gave a self-cleavage of 1.07. Variant A65U A77G U78C has a self-cleavage of 0.14. With U54C A65G U80A the self-cleavage was 0.44.
